Source: ChEMBL document CHEMBL4888484, “Replenishing the malaria drug discovery pipeline: Screening and hit evaluation of the MMV Hit Generation Library 1 (HGL1) against asexual blood stage Plasmodium falciparum ,using a nano luciferase reporter read-out” (2022)
The whole screen tested about 150,000 compounds, of which about 540 (0.36%) showed an effect of 50% or more. The list shows a part of the results.

test system: Plasmodium falciparum; assay: Primary screen in NF54 nanoGlo assay, in single point, at 2uM, 72h; a lower Z score goes with more inhibition; format: functional, Erythrocyte; conditions: timepoint 72 hour

Compound	% Inhibition [%]	Z score
CCc1ccc(-c2cn(CCc3c[nH]cn3)nn2)nc1	-20	1.98
CCc1cccc(CN2C3CCC2C(C(=O)O)C3)c1 (configuration not stated)	-6	0.47
Cc1cc(CN2C[C@H](c3cnn(C)c3)C3(CCOCC3)C2)no1	-15	1.68
Cc1cc(CN2CC3(CCCC3)OC[C@@H]2CN(C)C)on1	-12	1.83
Cc1nc2ccccc2n1CCN[C@@H](C)Cc1ccccn1	4	-0.84
COCCc1ncc(CN2[C@@H]3CC[C@H]2C[C@@H](c2ccc(OC)cc2)C3)cn1	-5	1.04
Cn1nc(OC(=O)Nc2ccccc2)cc1C(F)(F)F	38	-4.9
Cc1ccc2c(c1)[C@@H]1CN(C)CC[C@H]1N2C(=O)C1CCCC1	-10	1.83
O=S(=O)(c1cc(F)cc(F)c1)N1CCC[C@H]1c1cccnc1	-5	0.59
C[C@@H](C1CC1)N1CCOC2(CCCCCC2)C1	-7	0.79
COCC(C)(C)CNC(=O)C1C(C)(C)C1(C)C	-13	1.48
N#Cc1ccnc(CN2CC[C@@H]3CCCC[C@H]3C2)c1	-5	0.87
Cc1ccc(OCC(=O)N2C[C@H](N(C)C)C[C@H]2CO)cc1	-12	1.35
COCCCNC(=O)c1c(Cc2ccccc2C)n(Cc2ccccn2)c(C)cc1=O	-5	0.65
CCCCNC(=O)O[C@@H](C)CNC(=O)Oc1cccc(C)c1	-13	1.66
O=C(c1cccnn1)N1C[C@H](c2cccc(F)c2F)[C@@H]2[C@H]1C1CCN2CC1	-5	0.71
CCc1nc(CN(CCc2cccc(F)c2)C2CC2)no1	-9	0.87
c1ccc(CCNC[C@H]2CCCO2)cc1	-14	1.57
CN1C[C@@]2(Cc3c1ccc1ccccc31)C(=O)NC(=O)N(CCc1ccccc1)C2=O	8	-0.95
CC(C)c1csc(C2CCNCC2)n1	-9	0.84
CN1C[C@@H]2CN(c3nccc(Oc4ccccc4)n3)C[C@@H]2C1	12	-1.44
Fc1cc(F)cc([C@H]2CN(Cc3ccncc3)[C@@H]3C4CCN(CC4)[C@H]23)c1	-5	0.88

Compound	% Inhibition [%]	Z score
Cc1cc(C(=O)N2CCC(N(C(=O)C(F)(F)F)c3cccnc3)CC2)ncn1	-8	1.01
Clc1ccc2nccc(-c3cccc4c3CCNC4)c2c1	-7	1.27
COc1ccccc1Cn1cc(C(=O)NCCOC(C)C)c(=O)c(C(=O)NCCC2=CCCCC2)c1	-14	2.05
CN1C[C@H]2CC[C@@H](C1)N(Cc1cc(-c3ccccc3)no1)C2	-2	0.42
O=C(c1onc2c1CCCC2)N1C[C@@H](c2ccccc2)[C@@H]2[C@H]1C1CCN2CC1	2	-0.23
OC12C[C@@H](C3CO[C@@H]1O3)n1ncnc1N2	-12	1.89
Cc1cc(C)c(C)c(S(=O)(=O)N(C(=O)Oc2ccccc2)c2ccc3oc(=O)sc3c2)c1C	-36	4.81
CN1CCC[C@@]2(CCN(c3ncc(F)c(-c4ccsc4)n3)C2)C1	4	-0.74
Cc1c[nH]c(CN(C)CCc2ccccc2C)n1	-4	0.46
O=C1NC(=O)C2(Cc3cc(C(F)(F)F)ccc3N3CCOCC32)C(=O)N1c1ccccc1 (configuration not stated)	-41	4.79
O=S(=O)(N1CCCC1)N1C[C@@H]2CC[C@H]1CN(Cc1ccccn1)C2	5	-0.75
c1cc(CN2CCC3(CC2)CCN(Cc2ccon2)C3)no1	4	-0.69
CCn1cc(-c2ccc(C)cc2)cc1C(=O)N1CCC2(CC1)OCCO2	4	-0.7
Fc1ccc(CN2CCc3[nH]cnc3C23CCCCC3)nc1	-5	1.08
N[C@@H](Cc1ccccc1)c1cc2ccccc2[nH]1	-40	4.72
CN1C(=O)N(C)C(=O)C2(Cc3cc(C(F)(F)F)ccc3N3CCCC[C@H]32)C1=O	1	-0.15
CCCN1C[C@@H]2CC[C@H]1CN(c1ccc3ccccc3n1)C2	-1	0.13
C[C@H](NC(=O)Nc1ccccc1)C(=O)N1CCN2CCC1CC2	-4	0.35
O=C1NC(=O)C2(Cc3cccc(F)c3N3CCCC32)C(=O)N1c1ccccc1 (configuration not stated)	-20	2.63
COc1ccc2[nH]nc(CN3CC[C@@H](CO)[C@@H](O)C3)c2c1	-9	1.71
O=C(c1ccccc1Cl)N1C2CCC1c1cncnc1C2 (configuration not stated)	4	-0.66
CN1C2CCC1CC(Oc1ccc(Cl)cn1)C2 (configuration not stated)	-12	1.53

Compound	% Inhibition [%]	Z score
O=C(Cc1ccccn1)N1C[C@@H]2CC[C@H]1CN(Cc1ccncc1)C2	5	-0.8
CC(C)n1ccc(C(=O)NC2CC(C(=O)O)c3ccccc32)n1 (configuration not stated)	-1	0.16
O=C(NC[C@H]1C[C@@H]2CC[N@]1C[C@@H]2CN1CCC(Cc2ccccc2)CC1)Nc1ccccc1	42	-2.97
Cc1cc(C)c(CNc2nc3c(cnn3C(C)(C)C)c(=O)[nH]2)c(=O)[nH]1	-3	0.61
c1ccc([C@H]2NCC23CCCCC3)cc1	-2	0.39
O=C(Oc1ccccc1)N1C2CCC1CC(Oc1ccccn1)C2 (configuration not stated)	-3	0.49
N#Cc1ccccc1-c1ccc(-c2c(C#N)c(N)nc3c2[C@@H]2CC[C@H](C3)N2)o1	-6	0.7
CC(C)Oc1cccc(CCN[C@@H](C)CO)c1	-7	0.89
CCn1cc(C(=O)Nc2ccccc2C)c2cccnc21	-12	1.21
CCCn1cc(-c2ccncc2)cc1C(=O)N1CCC2(CC1)OCCO2	-8	0.94
C1CCC(C(NC2CCOC2)C2CC2)CC1 (configuration not stated)	-8	1.16
CCc1nc(C)c(CN2CCC[C@H](C(=O)c3cccc(Cl)c3)C2)[nH]1	-6	0.58
Cc1cnc(N2CCN(C)[C@]3(CCOC3)C2)c(Br)c1	4	-0.59
N#Cc1ccc(N[C@H]2CCN(C3CCOCC3)C2=O)cc1C(F)(F)F	1	-0.05
O=C(NCCc1cnn[nH]1)c1cccn(Cc2c(Cl)cccc2Cl)c1=O	-22	2.23
CCCn1ccc2oc(C)c(C(=O)N3CCC4(CC3)OCCO4)c2c1=O	-2	0.36
C[C@@H](CCCC(C)(C)O)NC1CCCCCC1	-6	1.1
CN(Cc1cc[nH]n1)C(=O)c1cc(S(=O)(=O)F)c[nH]1	-6	0.97
N#Cc1cnc2ccccc2c1N1CCC(C(=O)N2CCC3(CC2)OCCO3)CC1	-18	1.81
COc1cc(=O)n(-c2ccc(F)cc2)nc1C(=O)N1CCC2(CC1)OCCO2	26	-3.03
CN(C(=O)CCC(F)(F)F)C1CC2CCC(C1)N2 (configuration not stated)	-19	1.62
CC1CC2CCCCC2N1Cc1ccon1 (configuration not stated)	-12	1.74

Compound	% Inhibition [%]	Z score
CC(C)CN1CCN(Cc2ccncc2)[C@H]2CS(=O)(=O)C[C@H]21	-1	0.26
C[C@@H](CC1CCC1)NCc1ccccc1	-10	1.49
Cc1nn(CCc2ccc(F)c(F)c2)c(=O)o1	10	-1.99
C[C@@H](C(=O)Nc1ccccn1)N1CCOC2(CCCC2)C1	-17	2.14
COc1cccc(C[C@H](C)NC(=O)N(C)C2CCC(CO)CC2)c1 (some centres not stated)	-11	0.93
CN(CC(O)c1ccccc1)C1CC2CCC1C2 (configuration not stated)	-1	0.16
O=C(Cc1ccc(O)c(F)c1)N1CCN(CC2CC2)[C@@H]2CS(=O)(=O)C[C@@H]21	5	-0.72
CN(C)[C@H]1CCC[C@@H]1NC(=O)c1n[nH]c(=O)c2ccccc12	10	-1.12
C=CCOc1cccc2c1cc(C(=O)NC1CC1)n2Cc1ccc(C(C)(C)C)cc1	-12	2.1
Cc1[nH][nH]c(=O)c1CC(=O)N1CCN(Cc2ccc3c(c2)OCO3)CC1	-12	1.97
Cc1ccc(CN2C3CCC2CC(O)C3)o1 (configuration not stated)	-2	0.26
Cn1cc([C@@H]2CNCc3ccccc32)cn1	-20	2.28
CN(CCC1CC1)C(=O)NCCc1cnc2c(Cl)cnn2c1	14	-1.81
O=C1CO[C@H]2CN(Cc3ncc[nH]3)C[C@H]2N1Cc1ccncc1	-11	1.42
CC(C)NC(=O)N1C[C@@H]2C[C@@H](C1)c1cccc(=O)n1C2	-8	1.09
CCc1c(C(=O)NCC2(N3CCOCC3)CCCCCC2)c(=O)cc(C)n1Cc1ccccc1OC	17	-2.25
Cc1csc(CN(C)Cc2n[nH]c(=O)o2)n1	-1	0.19
CCCn1c(=O)oc2cc(NS(=O)(=O)c3cccc(Cl)c3)ccc21	-9	0.86
CC1CN(CCc2cccc(N)c2)CC1C (configuration not stated)	3	-0.54
C=CCNC(=O)CN1CCc2ncc(C(F)(F)F)cc2C1	-5	1.02
